In patent US20250270274A1, “SUPER LONG-LASTING GLP1 OR GLP1/GIP ANALOGUE DRUG FOR TYPE-2 DIABETES AND OBESITY” (Serpentide Inc., priority 2024, published 2025):
“And” between values parts separate entries of the source, which are not always exact repeats. Identical values can stand only once. “Also recorded” adds a separate entry of the source.

Tests used:
Assay type in all cases: in vivo
DIO mice = assay: 28-day study in DIO mice: body weight, blood glucose, food intake; conditions: for weight loss: after 28 days; for blood glucose: chronic dosing, blood glucose after 6 hours fasting, twice weekly (FIG. 7A)
Method: To further characterize and understand the efficacy of the fusion proteins, body weight and metabolic parameters were measured throughout a 28-day study in DIO mice (Beijing Vital River Laboratory Animal Technology Co., Ltd.).
The effects of all fusion proteins on blood glucose reduction and food intake were determined in the DIO mice described above (FIG. 7A and FIG. 7B). All mice are bled after fasting for 6 hours to measure blood glucose twice weekly.

C57BL mice = assay: Intraperitoneal glucose tolerance test (IPGTT) after single SC injection; conditions: for glycemic lowering effect (IPGTT) / decrease in glucose level, duration (IPGTT): single SC 100 or 300 nmol/kg; for glycemic lowering effect (IPGTT): Day 1, 7 and 14; for decrease in glucose level, duration (IPGTT): up to Day 28; for hypoglycemic effect (IPGTT): single SC, 30, 100 or 300 nmol/kg per FIG. 4 legend
Method: The effect of the fusion proteins on glucose tolerance was determined in C57BL mice (Beijing Vital River Laboratory Animal Technology Co., Ltd.). Each group (6 mice per group) received a single subcutaneous injection of PBS vehicle control, dulaglutide (TRULICITY® brand) (Vetter Pharma-Fertigung GmbH & Co. […] Intraperitoneal glucose tolerance tests (IPGTT) were performed on Day 1, 7, 14, 21, up to 28 after 6 hours fasting with tail vein blood glucose measurements at 0, 15, 30, 60, and 120 minutes.

[1] = Pharmacokinetic study of fusion proteins in C57BL mice after SC administration (plasma ELISA)
Method: The pharmacokinetic profiles in C57BL Mice (males with a body weight of approximately 25 g, Beijing Vital River Laboratory Animal Technology Co., Ltd.) were studied after subcutaneous (SC) administration of 30 nmol/kg of fusion proteins. Blood was drawn from the test subjects (6 mice per group) at various times at 6h, on Day1, 2, 4, 7, 10, and 14 after dosing. Plasma was collected from each sample, and analyzed by i): a nanobody-specific detection antibody (GenScript MonoRab™ Rabbit Anti-Camelid VHH CockTail, Cat #A02016), which will only detect the intact fusion proteins, or ii): an N-terminus specific ELISA which only detect active GLP-1 released (Novus Biologicals, Cat #NBP1-05180H).
For initial screening, all 9 SP01 nanobodies were fused to the N-terminus of SP01 via a 3×(G4S) linker without Xa factor sequences, and then further fused to the N-terminus of the hIgG4 Fc fragment via a 3×(G4S) linker. […]
Using a similar method mentioned in Example 5, the pharmacokinetic studies of the fusion protein P95 was carried out in C57BL mice with 100 and 300 nmol/kg dosing. The concentration of the intact fusion protein P95 in the collected plasma samples was detected by ELISA, and the results were shown in FIG. 2A and FIG. 2B.

Molecule | weight loss (DIO mice; 100 nmol/kg once weekly) | blood glucose (DIO mice) | glycemic lowering effect (IPGTT) (C57BL mice) | decrease in glucose level, duration (IPGTT) (C57BL mice) | constant level of released active GLP1 fusion protein in plasma ([1]; SC 100 or 300 nmol/kg, N-terminus specific ELISA (FIG. 1E, 1F)) | cumulative food intake (DIO mice; 100 nmol/kg once weekly, measured every two days (FIG. 7B)) | release of active GLP1 fusion protein in plasma ([1]; SC 100 or 300 nmol/kg (FIG. 1G, 1H)) | hypoglycemic effect (IPGTT) (C57BL mice; Day 1, 5) | hypoglycemic effect (IPGTT) (C57BL mice; Day 10)
P93: SEQ ID NO: 22: P67-RGER-SP01-hIgG4Fc (protein) QVQLVESGGGLVQPGGSLRLSCAASGSVFSRNFMGWYRQAPGKQRELVAYITVDGGTRYADSVKGRFTISRDNAKNTVYLQMNSLKPEDTAVYYCNRAGTTPYAWGQGTLVTVSSGGGGSGGGGSGGGGSRGERHGEGTFTSDVSSYLEEQAAKEFIAWLVKGGGGGGGSGGGGSGGGGSA[human IgG4 Fc with S228P F234A L235A (EU numbers) not given here] | 12.2% and 12% | significant blood glucose control | very stable glycemic lowering effects | significant decrease in glucose level for up to 28 days | about 2 ng/ml |  |  |  | 
P99: SEQ ID NO: 23: P67-RKR-SP01-hIgG4Fc (protein) QVQLVESGGGLVQPGGSLRLSCAASGSVFSRNFMGWYRQAPGKQRELVAYITVDGGTRYADSVKGRFTISRDNAKNTVYLQMNSLKPEDTAVYYCNRAGTTPYAWGQGTLVTVSSGGGGSGGGGSGGGGSRKRHGEGTFTSDVSSYLEEQAAKEFIAWLVKGGGGGGGSGGGGSGGGGSA[human IgG4 Fc with S228P F234A L235A (EU numbers) not given here] | 20.7% | significant blood glucose control | very stable glycemic lowering effects | significant decrease in glucose level for up to 28 days |  | greatest reduction in cumulative food intake; also recorded: significant reduction of food intake | rapidly release the active GLP1 fusion protein |  | 
P46: SEQ ID NO: 29-27: SP01-amG3, SP01 fused to the N-terminus of amG3 light chain (protein, heavy chain of amG3 not cited) light: HGEGTFTSDVSSYLEEQAAKEFIAWLVKGGGGGGGSGGGGSGGGGSDVVMTQTPLSLPVSLGDQASISCRSSQSLVHSNGDTYLHWYLQKPGQSPKLLIYKVSNRFSGVPDRFSGSGSGTDFTLKISRVEAADLGVYFCSQSTHVPPFTFGGGTKLEIKRTVAAPSVFIFPPSDEQLKSGTASVVCLLNNFYPREAKVQWKVDNALQSGNSQESVTEQDSKDSTYSLSSTLTLSKADYEKHKVYACEVTHQGLSSPVTKSFNRGEC heavy: QVQLQQPGAELVKPGASVKLSCRASGYTFTSNWMHWVKQRPRQGLEWIGEINPSNGRSNYNEKFKTKATLTVDKSSSTAYMQLSSLTSEDSAVYYCARFYYGTSWFAYWGQGTLVAVSAASTKGPSVFPLAPCSRSTSESTAALGCLVKDYFPEPVTVSWNSGALTSGVHTFPAVLQSSGLYSLSSVVTVPSSSLGTKTYTCNVDHKPSNTKVDKRV[human IgG4 Fc with S228P F234A L235A (EU numbers) not given here] |  |  |  |  |  |  |  | showed hypoglycemic effect | completely lost its effect
